Out of some 44,000 compounds screened, about 340 (0.77%) were called active. Inconclusive results, whose numbers are uncertain, are shown with a selection of clear calls. Calls follow the shape of the dose curve; as a rule, active = well fitted inhibition curve with a large enough effect; inconclusive = small, poorly fitted or top-dose-only effect; inactive = flat fitted curve, though single readings scatter. Potencies of inconclusive entries are left out as doubtful fits.
Assay: Acumen qHTS Assay for Inhibitors of the mTORC1 Signaling Pathway in MEF (Tsc2-/-, p53-/-) Cells: Sytravon; also: nearly all actives have a fitted effect of over 50% in size;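 as to activity change, negative = inhibition: plate controls were DMSO for no effect and rapamycin for full effect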
Settings: phospho-rpS6 immunofluorescence/PI, 24 h; series mostly up to 38.3 µM; activity change, negative = inhibition: at the top concentration
Procedure, shortened: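 Read-out: phospho-S6 Alexa-488 intensity over PI intensity per well, scored as % active cells using thresholds from rapamycin (7.5 nM) and DMSO controls. Tsc2-/-, p53-/- MEFs exposed to compound for 24 h; PI cell count recorded as viability.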
Potency is read from the fitted curve at half-maximal effect; tags tell the direction and shape of the fitted curve.

Compound	activity change, negative = inhibition	Potency
Cc1cc(NC(=O)c2cccc(Cl)c2)ccc1-c1cc2ccccc2oc1=O	inactive: 1.45%	–
O=C(C1CCN(c2ncnc3c2nc2n3CCCCC2)CC1)N1CCN(c2cccc(Cl)c2)CC1	inactive: -10.4%	–
COc1ccc(/C=C/C(=O)Nc2ccc3nc4c(c(Nc5ccccc5OC)c3c2)CCCC4)cc1	–	active: 2.33 µM
CCOc1ccc(NC(=O)c2cnc(N3CCCC3)nc2C)cc1	inactive: 0%	–
CC(C)(C)OC(=O)N1CCC(c2c(C(=O)NCCN3CCc4ccccc4C3)cnn2-c2ccc(F)cc2F)CC1	inactive: -1.37%	–
Cc1ccc(CN2CCC(CNC(=O)Nc3ccc(Cl)cc3)C2)cc1 (stereo not given)	–	inconclusive [falling, single point]
COc1ccccc1N1CCN(C(=O)c2nc(SC)ncc2Cl)CC1	–	inconclusive [falling, partial curve, poor fit]
Cc1c(C(=O)OCCOc2ccccc2)[nH]c2c1C(=O)CC(c1ccccc1)C2 (stereo not given)	–	inconclusive [falling, partial curve, poor fit]
CCN1CCOC(=O)C1CC(=O)Nc1cc(C)ccc1OC (stereo not given)	–	inconclusive [falling, partial curve, poor fit]
COc1ccc(CCNC(=O)CSc2nc3ccccc3nc2Cc2ccc(Cl)cc2)cc1OC	–	inconclusive [falling, single point]
Cc1cccc(NS(=O)(=O)c2ccc(Cl)c(C(=O)Nc3ccccc3C)c2)c1	inactive: -2.44%	–
CC(C)Cn1c(-c2ccc(S(=O)(=O)N3CCCC3)cc2)csc1=Nc1ccccc1	inactive: -28.6%	–
COc1ccccc1CNC(=O)c1cccc(NC(=O)N2CCSc3ncccc32)c1	inactive: -1.4%	–
Cc1ccc(Cl)cc1NC(=O)c1cc(-c2ccc3c(c2)OCCO3)on1	inactive: -18.3%	–
Cc1ccc(NC(=O)CSc2nc3nccnc3c(=O)n2CCc2c[nH]c3ccccc23)c(C)c1	inactive: 8.22%	–
CCOc1ccc(NC(=O)c2ncn(-c3ccccc3)n2)cc1	inactive: 4.96%	–
COc1ccccc1C(=O)N1c2ccccc2C(C)(c2ccc(Cl)cc2)CC1(C)C (stereo not given)	–	inconclusive [falling, single point]
COc1ccc(-c2c3c(nc4sc(C(=O)Nc5ccccc5F)c(N)c24)CC(C)(C)CC3=O)cc1	–	inconclusive [falling, partial curve, poor fit]
Cc1ccc(C(=O)N2CCN(c3ccc(F)cc3)CC2)cc1NC(=O)c1nsc2ccccc12	–	inconclusive [falling, partial curve, poor fit]
Cc1ccc(C)c(CSc2ccc3nnc(CCNS(=O)(=O)c4ccccc4)n3n2)c1	inactive: 0.497%	–
COc1ccc(OC)c(Nc2ncnc3c2cnn3-c2cccc(Cl)c2)c1	–	inconclusive [falling, full curve]
CCN(CC)CCNC(=O)c1cc(-c2ccc(Br)s2)nc2ccccc12	–	inconclusive [falling, partial curve, poor fit]
COc1ccc2nc(NC(=O)c3nc(S(=O)(=O)Cc4ccccc4)ncc3Cl)sc2c1	–	active: 9.27 µM

Compound	activity change, negative = inhibition	Potency
CCC1=Nc2cc(C(=O)NCC(C)c3ccccc3)ccc2Sc2ccc(C)cc21 (stereo not given)	–	inconclusive [falling, partial curve, poor fit]
CC(Oc1ccc(F)cc1)C(=O)Nc1nc(-c2ccc(F)cc2)ns1 (stereo not given)	–	inconclusive [falling, partial curve, poor fit]
CCOc1cccc(NC(=O)C2CC(=O)N(C)C(=Nc3cccc(OC)c3)S2)c1 (stereo not given)	inactive: -12%	–
Cc1ccc(Sc2c(C)nn(C(=O)COc3ccccc3)c2C)cc1	–	inconclusive [falling, single point]
Cc1cccc(OCC(=O)NCC2(N3CCN(C)CC3)CCCCC2)c1C	–	inconclusive [falling, single point]
COc1ccc(/C=C\c2onc(C)c2S(=O)(=O)N2CCC(C(=O)Nc3ccc(Cl)cc3)CC2)cc1	inactive: -10.5%	–
O=C(Nc1ccc(Cl)cc1Cl)c1cc(S(=O)(=O)N2CCc3ccccc32)ccc1F	–	inconclusive [falling, partial curve, poor fit]
CNC(=O)c1cc(Nc2nnc(-c3ccc(O)cc3)c3ccccc23)ccc1OC	inactive: 2.02%	–
CCCCOc1ccc(C(=O)N2CCN(CCc3ccccn3)CC2)cc1	inactive: -13.6%	–
CCOC(=O)c1cccc(NC(=O)Cn2ncc3c4ccccc4n(Cc4ccccc4)c3c2=O)c1	inactive: 1.22%	–
COc1ccccc1CN1COc2ccc3c(oc(=O)c4ccccc43)c2C1	–	inconclusive [falling, full curve]
Cc1ccc(Cn2c(=O)n(CCCC(=O)NCc3ccccc3Cl)c(=O)c3ccccc32)cc1	inactive: 5.87%	–
COc1ccc(OC)c(NC(=O)CN2C(=O)COc3ccc(S(=O)(=O)NC4CCCC4)cc32)c1	–	inconclusive [falling, single point]
Cc1cncn1CCc1nc2c3ccccc3nc(SCC(=O)Nc3cccc(Cl)c3)n2n1	–	inconclusive [falling, single point]
Cc1ccccc1OCC(O)Cn1c(=N)n(CCN2CCCCC2)c2ccccc21 (stereo not given)	–	active: 10.4 µM
COc1cc(NS(=O)(=O)c2ccc3[nH]c4c(c3c2)CCCCCC4)cc(OC)c1	–	inconclusive [falling, single point]
CCc1ccc(-n2nc(C)c3c(C)cc(=O)n(CC(=O)N4CCCc5ccccc54)c32)cc1	–	inconclusive [falling, partial curve, poor fit]
CCOC(=O)c1cnc2ccc(OC)cc2c1NCCc1ccccc1	inactive: -1.02%	–
CC1CCn2c(nc3cc(C(=O)NCCc4ccc(Cl)cc4)ccc32)C1 (stereo not given)	inactive: -21.8%	–
CCOc1ccc(-c2nonc2NC(=O)c2oc3ccc(Br)cc3c2C)cc1	inactive: -22.9%	–
Cc1cccc(Cn2cc(C(=O)Nc3ccc(F)c(C(F)(F)F)c3)ccc2=O)c1	–	inconclusive [falling, single point]
CCOC(=O)CN1C(=O)C(O)(CC(=O)c2cc(OC)ccc2OC)c2ccccc21 (stereo not given)	–	inconclusive [falling, single point]

Reference: PubChem BioAssay AID493208 (National Center for Advancing Translational Sciences (NCATS), 2011)
